Results published in PubChem BioAssay AID588855 (National Center for Advancing Translational Sciences (NCATS), 2011).
About 5,000 (1.2%) of roughly 410,000 compounds were called active. The inconclusive results got no clear call from the source; some entries with a clear call stand among them for comparison. Calls follow the shape of the dose curve; as a rule, active = well fitted inhibition curve with a large enough effect; inconclusive = small, poorly fitted or top-dose-only effect; inactive = no such curve, though single readings can be large or run the other way. Where the call is inconclusive, the potency comes from a doubtful curve fit.

Test: qHTS for Inhibitors of TGF-b; also: nearly all actives have a fitted effect of over 65% in size
Conditions: HepG2 CAGA-GFP TGF-b/SMAD3 reporter, GFP fluorescence, 18 h, TGF-beta stimulated, 500 pg/mL final; series mostly up to 46.1 µM
In short: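 Read-out: total well GFP (ex488/em500-530) summed from mean per-cell fluorescence. Cells: HEPG2 CAGA-GFP, 1% FBS DMEM, 18 h at 37 degrees C with 500 pg/mL final TGF-beta. Unstimulated wells served as the full-inhibition control; stimulated DMSO wells = 0%.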
Potency is read from the fitted curve at half-maximal effect; tags tell the direction and shape of the fitted curve.

| Structure (SMILES) | Potency |
| --- | --- |
| Oc1ccc(-c2onc(C(F)(F)F)c2-c2cscn2)c(O)c1 | inconclusive: 11.2 µM [inhibitor, single point] |
| COC(=O)c1ccc(C2C=C(c3ccc(Cl)cc3)Nc3nc4ccccc4n32)cc1 (configuration not stated) | inconclusive: 10 µM [inhibitor, partial curve, poor fit] |
| O=C(Nc1cc(S(=O)(=O)N2CCCCCC2)ccc1OCC(F)(F)F)c1cnccn1 | inactive |
| COc1ccccc1C(=O)NNC(=O)C(=O)NCc1ccccc1 | inconclusive: 3.55 µM [inhibitor, single point] |
| Cn1ccc2cc(S(=O)(=O)N3CCCC(C(=O)NCc4ccc(F)cc4)C3)ccc21 (configuration not stated) | inconclusive: 11.2 µM [inhibitor, partial curve, poor fit] |
| O=C(NCc1ccc2c(c1)OCO2)c1ccc(CSCc2ccccc2Cl)o1 | inconclusive: 5.62 µM [inhibitor, single point] |
| CC(/C=N/NC(=O)c1cc(-c2ccccc2)nc2ccccc12)=C\c1ccco1 | inconclusive: 14.1 µM [inhibitor, single point] |
| CCOc1ccc(NC(=S)NCc2ccc3c(c2)OCO3)cc1 | inactive |
| OC[C@@H]1CN(Cc2ccc(-c3ccccc3)cc2)C[C@H](n2cnc3c(NC4CC4)ncnc32)O1 | inactive |
| Cc1cc(C)n(CCc2nc3c4ccccc4nc(SCc4ccc(Cl)cc4)n3n2)n1 | inactive |
| CCOc1ccc(NC(=O)CC2C(=O)N(c3ccc(C)cc3)C(=O)N2C2CCCCC2)cc1 (configuration not stated) | inconclusive: 0.562 µM [inhibitor, full curve, poor fit] |
| CC1CN(C(=O)c2cccc(COc3ccc(Br)cc3)c2)CC(C)O1 (configuration not stated) | inactive |
| COc1ccc(/C=N\NC(=O)c2ccccc2OC)cc1COc1c(F)c(F)c(F)c(F)c1F | inconclusive: 1.78 µM [inhibitor, full curve] |
| CC(=O)Nc1ccc(SCC(CC(C)C)N2CCN(CCc3ccccc3)CCC2=O)cc1 (configuration not stated) | inconclusive: 17.8 µM [inhibitor, single point] |
| COCCNC(=O)CSc1ccccc1C(=O)O | inactive |
| COc1ccc(/C=C(/C#N)c2nc(-c3cc4ccccc4oc3=O)cs2)cc1 | inactive |
| CCCN(CC(=O)Nc1ccc(F)c(F)c1F)CC(=O)Nc1c(Cl)cccc1Cl | inactive |
| O=C1CC(N2CCN(c3ccccc3)CC2)C(=O)N1Cc1ccc(Cl)cc1 (configuration not stated) | inconclusive: 20 µM [inhibitor, single point] |
| Cc1cc(NC(=O)Nc2ccccc2)n(C(C)(C)C)n1 | inactive |
| COC(=O)NC(NC(=S)Nc1ccc([N+](=O)[O-])cc1)C(Cl)(Cl)Cl (configuration not stated) | inconclusive: 25.1 µM [inhibitor, single point] |
| Cc1ccc(S(=O)(=O)NCC(=O)OCC(=O)N(Cc2ccccc2)C(C)(C)C)cc1 | inconclusive: 5.62 µM [inhibitor, single point] |

| Structure (SMILES) | Potency |
| --- | --- |
| C=CCn1c(CCNC(=O)c2ccco2)nc2ccccc21 | inactive |
| COc1ccc(-c2nc(SCC(=O)c3ccc(Br)cc3)n[nH]2)cc1 | inconclusive: 2.51 µM [inhibitor, full curve] |
| Cn1nnnc1SCC(=O)NCCc1ccc(Cl)cc1 | inactive |
| O=c1nc(N/N=C/c2c[nH]c3ccccc23)cn[nH]1 | inconclusive: 5.62 µM [inhibitor, single point] |
| C[C@@H]1CCCCO[C@@H](CN(C)Cc2ccc3c(c2)OCO3)[C@@H](C)CN([C@H](C)CO)C(=O)c2cc(NS(=O)(=O)c3ccccc3)ccc2O1 | inconclusive: 20 µM [inhibitor, single point] |
| O=C(CSc1nnc(CNC(=O)C23CC4CC(CC(C4)C2)C3)n1-c1ccc(F)cc1)Nc1ccc(F)cc1 | inconclusive: 12.6 µM [inhibitor, partial curve, poor fit] |
| COc1ccc(-n2ncc(S(=O)(=O)c3ccccc3)c2-c2ccc(Cl)cc2)cc1 | inactive |
| CCOC(=O)C(C(=O)OCC)C1N=C(N)N=C2Oc3ccccc3N21 (configuration not stated) | inconclusive: 35.5 µM [inhibitor, single point] |
| COc1cc(NC(=O)C2CCN(S(=O)(=O)c3c(C)noc3/C=C/c3cccs3)CC2)cc(OC)c1 | inconclusive: 7.08 µM [inhibitor, full curve, poor fit] |
| CC(C)CCCC(C)NC(=O)c1cc(S(=O)(=O)N2CCCCC2)ccc1N1CCOCC1 (configuration not stated) | inconclusive: 25.1 µM [inhibitor, single point] |
| C=CCn1c(CNc2ccc(C)cc2)nnc1SCC(=O)N/N=C/c1ccc(O)cc1O | inconclusive: 6.31 µM [inhibitor, single point] |
| CCN1C(=O)c2ccccc2S(=O)c2ccc(C(=O)NCc3ccc(C)cc3)cc21 (configuration not stated) | inconclusive: 6.31 µM [inhibitor, single point] |
| Cc1ccc2c(CN(C)Cc3cccc(F)c3)cc(=O)oc2c1C | inactive |
| O=C(N/N=C/c1cn(Cc2cccc(F)c2)c2ccccc12)c1cc(O)cc(O)c1 | inconclusive: 2.51 µM [inhibitor, partial curve] |
| O=S(=O)(c1ccc(OC(F)(F)F)cc1)N1CCCC(c2ccccc2)C1 (configuration not stated) | inactive |
| Cc1cccc(NC(=O)[C@H](C)NC(=O)[C@@H]2Cc3ccccc3CN2C(=O)OC(C)(C)C)c1 | inconclusive: 14.1 µM [inhibitor, single point] |
| COC(=O)Cn1c(CN(Cc2ccccc2)Cc2ccccc2)nc2c1c(=O)[nH]c(=O)n2C | inconclusive: 20 µM [inhibitor, single point] |
| CC(=O)c1ccc(NC(=O)CCCCCn2nnc3ccccc3c2=O)cc1 | inconclusive: 2.24 µM [inhibitor, partial curve, poor fit] |
| COc1ccc(NC(=O)C2CCCN(C(=O)c3cnn(-c4ccccc4)c3-n3cccc3)C2)cc1 (configuration not stated) | inconclusive: 1 µM [inhibitor, full curve, poor fit] |
| COc1ccc(-c2noc(C3CCCN(C(=O)c4ccccc4)C3)n2)cc1 (configuration not stated) | inactive |
| COc1ccc(Nc2c3c(nc4ccccc24)CCC3)c(OC)c1 | inconclusive: 35.5 µM [inhibitor, single point] |
